Source: paper PMC4336329 (PLoS ONE, 2015)
In all, about 310,000 compounds went through this assay and about 14,000 (4.5%) showed an effect of 50% or more. The effect is printed as a negative number. The list shows a part of the results.

What follows are molecules tested against human ether-à-go-go-related gene (hERG) potassium channel (human, UniProt Q12809) (assay: primary screen, population patch clamp on CHO cells stably expressing hERG).
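Also: peak tail current of the secondary pulse compared with the same well before compound.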

Sequence of human ether-à-go-go-related gene (hERG) potassium channel (Q12809 whole entry, looked up): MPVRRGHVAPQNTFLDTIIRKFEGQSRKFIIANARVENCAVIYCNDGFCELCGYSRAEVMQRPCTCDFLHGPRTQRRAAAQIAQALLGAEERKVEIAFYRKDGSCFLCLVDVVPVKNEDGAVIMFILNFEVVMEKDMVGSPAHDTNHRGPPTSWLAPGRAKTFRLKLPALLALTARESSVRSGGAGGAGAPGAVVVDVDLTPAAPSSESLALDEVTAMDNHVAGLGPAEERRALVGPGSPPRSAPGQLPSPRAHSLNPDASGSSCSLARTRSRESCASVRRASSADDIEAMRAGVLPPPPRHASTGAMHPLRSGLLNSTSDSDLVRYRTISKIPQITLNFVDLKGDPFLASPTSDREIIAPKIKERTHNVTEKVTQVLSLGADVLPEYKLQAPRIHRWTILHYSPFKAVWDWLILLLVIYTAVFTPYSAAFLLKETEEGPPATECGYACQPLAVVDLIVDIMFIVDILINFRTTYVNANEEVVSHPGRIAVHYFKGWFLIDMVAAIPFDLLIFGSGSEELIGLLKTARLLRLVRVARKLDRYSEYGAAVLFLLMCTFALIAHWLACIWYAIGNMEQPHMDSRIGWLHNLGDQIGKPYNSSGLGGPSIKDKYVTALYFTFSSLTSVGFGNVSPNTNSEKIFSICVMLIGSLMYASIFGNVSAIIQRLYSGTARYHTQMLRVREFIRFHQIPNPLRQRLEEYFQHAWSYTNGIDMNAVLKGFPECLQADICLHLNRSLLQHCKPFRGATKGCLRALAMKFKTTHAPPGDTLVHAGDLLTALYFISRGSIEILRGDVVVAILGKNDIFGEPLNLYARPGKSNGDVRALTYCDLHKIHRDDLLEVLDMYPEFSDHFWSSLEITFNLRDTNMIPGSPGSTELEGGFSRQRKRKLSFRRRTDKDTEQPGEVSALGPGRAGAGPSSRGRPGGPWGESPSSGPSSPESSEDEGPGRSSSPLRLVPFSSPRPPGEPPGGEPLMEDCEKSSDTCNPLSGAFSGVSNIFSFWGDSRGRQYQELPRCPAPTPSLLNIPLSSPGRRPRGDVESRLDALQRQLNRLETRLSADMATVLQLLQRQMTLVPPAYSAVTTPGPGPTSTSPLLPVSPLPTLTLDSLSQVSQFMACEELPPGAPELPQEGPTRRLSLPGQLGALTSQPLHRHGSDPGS

| SMILES | hERG current change (%, negative = inhibition) at 10uM [%] |
| --- | --- |
| CCOc1ccc(-n2nnnc2SCC(=O)Nc2ccc(NC(C)=O)cc2)cc1 | 22.8 |
| CCN(CC)C(=O)CSc1nc2nc(C)cc(C)c2c(=O)[nH]1 | 15.4 |
| CCCN1C2=C(C(=O)CCC2)C(c2ccc(O)c(Br)c2)C2=C1CCCC2=O | -18.1 |
| O=C(NCCN1CCNC1=O)C1CCC(=O)N(Cc2cccc(C(F)(F)F)c2)C1 (centres unmarked) | 12.9 |
| CCOC(=O)Cc1csc(NC(=O)CSc2nnc3ccccn23)n1 | 12.2 |
| Cc1ccc(N(CN2CCCC2=O)C(=O)c2ccccc2)cc1 | 22.4 |
| O=C(CC(c1ccccc1)c1cc(Cl)ccc1O)N1CCOCC1 (centres unmarked) | -15.1 |
| CC(C)(C)c1nn(-c2ccccc2)c2[nH]c(=O)c(C=O)cc12 | 8.56 |
| COc1ccc(OC)c(CCNC(=O)CCc2nnc3ccc(N4CCOCC4)nn23)c1 | 16.1 |
| CCn1c(CC(=O)Nc2ccccc2)nnc1SCC(=O)NC1=NCCS1 | 12.9 |
| Cc1ccccc1C1CCCN(Cc2nc(CC3CC3)no2)C1 (centres unmarked) | -12.7 |
| COC(=O)c1ccc(NS(=O)(=O)c2ccc(-c3cc(C)no3)s2)cc1 | 10.5 |
| O=C(Nc1ccc2c(c1)C(=O)OC2)c1ccc(Cl)cc1 | 20.7 |
| CCCCC(=O)Nc1ccccc1N1CCN(c2ccccc2)CC1 | 3.1 |
| Cc1ccc(CNC(=O)CNS(=O)(=O)c2ccc(Br)s2)cc1 | -0.279 |
| Cc1cccc(OCC(=O)N(Cc2ccco2)C2CCS(=O)(=O)C2)c1C (centres unmarked) | -32.8 |
| Cc1ccccc1OC(C)C(=O)Nc1cccnc1 (centres unmarked) | 10.4 |
| O=C1NC(=O)C(c2ccc(Cl)cc2)N1 (centres unmarked) | 11.7 |
| Cc1cccc(NC(=O)CSc2nc3c([nH]c4ccccc43)c(=O)n2C)c1 | 5.54 |
| CN(CCc1ccccn1)C(=S)Nc1ccc(Cl)cc1Cl | -11.2 |
| CCOc1nc2cnccc2n(CC(=O)Nc2ccccc2C(=O)OC)c1=O | -1.11 |
| Cc1nc(SCC(=O)Nc2cccc(C(=O)O)c2)n[nH]1 | 24.9 |
| COc1ccc(-c2nnc3n2N=C(C)CS3)cc1OC | -9.22 |

| SMILES | hERG current change (%, negative = inhibition) at 10uM [%] |
| --- | --- |
| COc1ccc(-n2nc(C(=O)NCC(=O)N3CCN(c4ccccc4OC)CC3)c3ccccc3c2=O)cc1OC | -34.5 |
| Cc1nn(CCc2n[nH]c(=S)n2-c2ccc(F)c(Cl)c2)c(C)c1[N+](=O)[O-] | 15.4 |
| COc1ccc(NC(=O)c2noc3c2CCC3)cc1 | -4.67 |
| CN(CC(=O)OCC(=O)c1c(N)n(C)c(=O)n(C)c1=O)S(=O)(=O)c1ccc(Cl)cc1 | -69.3 |
| CCCCCc1nc2c(C#N)c(-c3ccc(Cl)cc3)ccn2n1 | 12 |
| CCNC(=O)CC1C(=O)N(c2ccc(F)cc2)C(=O)N1Cc1cccs1 (centres unmarked) | -29.9 |
| Cc1c(C)c2cc(Cl)c(OC(C)C(=O)NCCN3CCOCC3)cc2oc1=O (centres unmarked) | 2.2 |
| O=C(Nc1ccc(NC(=O)c2ccco2)cc1)c1cnccn1 | 21.2 |
| CCOc1ccccc1CNS(=O)(=O)c1ccc2[nH]c(=O)sc2c1 | -15.6 |
| CC(C)(C)NC(=S)N1CCn2cccc2C1c1cccnc1 (centres unmarked) | 5.4 |
| CCN(CC)c1ccc2c(-c3ccc(S(=O)(=O)[O-])cc3S(=O)(=O)[O-])c3ccc(=[N+](CC)CC)cc-3oc2c1.[Na+] | 11 |
| O=C(Cn1[nH]c(=O)c2ccccc2c1=O)Nc1cccc(S(=O)(=O)N2CCCCCC2)c1 | -13.2 |
| C/C(=N\NC(=O)c1ccc(N(C)C)cc1)c1cccnc1 | -6.75 |
| O=C(CN1CCCCC1)N=Nc1c(O)[nH]c2ccccc12 | 4.68 |
| Cc1noc(C)c1COC(=O)c1ccc(S(=O)(=O)N2CCCCC2)cc1 | -21.3 |
| Oc1ccc(Cl)cc1-c1cc(-c2ccccc2)n[nH]1 | 18.2 |
| O=C(CC(Cc1ccccc1)c1ccco1)NC1CCCCC1 (centres unmarked) | -3.48 |
| CNC(=O)c1c(NC(=O)c2ccco2)sc2c1CCC2 | 16.8 |
| COCC(=O)Nc1ccc(Nc2ccccc2)cc1 | -16.4 |
| CCCCc1nnc(SCC(=O)NC2CCCCC2)n1C | 15 |
| COC(=O)C(NC(=O)c1c(C)nn(C)c1Cl)c1ccccc1 (centres unmarked) | 6.88 |
| O=C(Nc1cccc(-c2ccc(F)cc2)c1)C1CCCN(C(=O)c2cscn2)C1 (centres unmarked) | -39.1 |
| Cc1ccc(N)c([N+](=O)[O-])c1 | 16.4 |

| SMILES | hERG current change (%, negative = inhibition) at 10uM [%] |
| --- | --- |
| COC(=O)CSc1nnc(C)c(=O)[nH]1 | 2 |
| Cc1cc(NC(=O)c2ccc3c(c2)OCCO3)ccc1NC(=O)c1ccco1 | 8.5 |
| CCOC(=O)/C(=N\Nc1ccccc1)S(=O)(=O)c1ccccc1 | -11.3 |
| COc1cc(/C=N/NC(=O)[C@H](Cc2c[nH]c3ccccc23)NC(=O)OCC(C)C)cc([N+](=O)[O-])c1O | 10.3 |
| COc1ccc(C(=O)N/N=C(\c2ccccc2)c2ccccn2)cc1 | -31.9 |
| c1ccc(C2Nc3cccc4cccc(c34)N2)cc1 | 14 |
| CC(C)(C)c1ccc(C(=O)NCCNC(=O)c2ccco2)cc1 | 0.435 |
| CCOc1ccc(C(=O)Nc2ccc(N3CCN(C)CC3)cc2)cc1 | -50.2 |
| Br.CC(=O)NNc1nc(-c2ccccc2)cs1 | 14.4 |
| COc1ccc(-c2n[nH]c(C)c2-c2ccc(OC)c(OC)c2)c(O)c1 | -4.33 |
| Cc1ccc(-n2nc(C)c3c(C)c(CCC(=O)NCC4CCCO4)c(=O)n(C)c32)cc1 (centres unmarked) | 14.4 |
| CCCCCCC(=O)N(O)C1CC(=O)N(c2ccccc2)C1=O (centres unmarked) | 21.9 |
| COCCN(C(=O)CC1CCCCC1)c1c(N)n(CC(C)C)c(=O)[nH]c1=O | 7.17 |
| O=c1c2ccccc2cnn1Cc1n[nH]c(=S)n1-c1ccc(Cl)cc1Cl | 13.7 |
| COc1ccc(/C(C)=N/Nc2ccc(C(=O)O)cc2)c(OC)c1.O=S(=O)(O)O | -2 |
| C/C(CC(=O)Nc1cccc(Cl)c1C)=N\NC(=O)Cc1csc(N)n1 | 2.42 |
| Oc1cccc(/C=N/N=C/c2cccc(O)c2O)c1O | 13.1 |
| COc1ccccc1C(c1nnnn1CCc1ccccc1)N1CCN(c2ccccc2)CC1 (centres unmarked) | 1.89 |
| Cc1ccc(N2C(=O)NC(=O)/C(=C/c3ccc(OC(=O)c4cccs4)cc3)C2=O)cc1 | -10.5 |
| C[C@@H]1C=C(C(=O)N2CCN(C)CC2)O[C@H](OCc2ccc(CO)cc2)C1 | 19.6 |
| CSc1sc(C(=O)NN)c2c1C1(CCC2)SCCS1 | -3.81 |
| O=C(COc1ccc(F)cc1)Nc1nc2c(s1)CCCC2 | 14.2 |
| Cc1nc(-c2cccc(S(=O)(=O)N3CC(C)CC(C)C3)c2)cs1 (centres unmarked) | -1.88 |

| SMILES | hERG current change (%, negative = inhibition) at 10uM [%] |
| --- | --- |
| COc1ccc(C(=O)Nc2ccc(C(=O)NCC3CCCO3)cc2)c(OC)c1OC (centres unmarked) | 11.9 |
| COC(=O)Nc1nnc(-c2ccccc2OC)s1 | 2.64 |
| N=c1n(CC(=O)c2ccc(Br)cc2)c2ccccc2n1Cc1ccccc1.[Br-] | -9.25 |
| Cc1ccc(C(=O)NCC(C)(C)N2CCOCC2)s1 | 2.43 |
| CN(C)/C=C1\Cc2ccccc2C1=O | 14.2 |
| O=C(C(=O)N1CCCc2ccccc21)c1cn(CC(=O)N2CCOCC2)c2ccccc12 | -3.26 |
| O=C(NCc1ccco1)C(c1ccccc1)N(Cc1cccnc1)C(=O)Cn1nnc2ccccc21 (centres unmarked) | -18.9 |
| Cc1ccc(S(=O)(=O)Nc2ccccc2C(=O)OC(C)C(=O)Nc2ccc3ccccc3c2)cc1[N+](=O)[O-] (centres unmarked) | -3.11 |
| O=C(CSCCN1C(=O)c2ccccc2C1=O)Nc1ccc2ccccc2c1 | -11.7 |
| CCc1ccc(OCC2NCCc3cc(OC)c(OC)cc32)cc1 (centres unmarked) | -45.2 |
| C=CCn1c(=O)c(C(=O)Nc2cccnc2)c(O)c2ccccc21 | -21 |
| O=C(O)c1ccc(NC(=O)C(c2ccccc2)c2ccccc2)cc1 | 14.3 |
| C=CCn1cc(C(=O)NCCOC)c(=O)c2cc(S(=O)(=O)N3CCCCCC3)ccc21 | -65.8 |
| COC(=O)c1ccncc1C(=O)Nc1ccc(Oc2ncc(C(F)(F)F)cc2Cl)cc1 | -5.09 |
| CCNc1c([N+](=O)[O-])ncn1C | -4.43 |
| Cc1ccsc1/C=N/N1CCN(c2ccccc2)CC1 | 3.82 |
| COc1ccccc1NC(=O)N[C@@H](Cc1c[nH]c2ccccc12)C(=O)NN | 6.25 |
| COC(=O)Cc1ccc(NC(=S)N2CCN(c3cc(Cl)ccc3C)CC2)cc1 | 12.3 |
| COc1cc(F)ccc1S(=O)(=O)N1CCN(C23CC4CC(CC(C4)C2)C3)CC1 | -36.1 |
| COc1ccc(NC(=O)CC2SC(=NCC3CCCO3)NC2=O)c([N+](=O)[O-])c1 (centres unmarked) | 1.17 |
